# Experimental data taken from PubChem BioAssay AID686978 (National Center for Advancing Translational Sciences (NCATS), 2013).
# Where “and” joins values, the source holds several entries; their conditions need not be identical. Equal entries are not always repeated. Screen size: about 420,000 compounds; about 64,000 (15%) were called active. The shares of active, inactive and inconclusive entries below differ from those in the screen. The call rests on the fitted dose curve; in most records, active means well fitted inhibition curve with a large enough effect; inconclusive means small, poorly fitted or top-dose-only effect; inactive means flat fitted curve, though single readings scatter. Potencies beside an inconclusive call are fits to weak or partial responses and may not hold up.
# Experiment: qHTS for Inhibitors of human tyrosyl-DNA phosphodiesterase 1 (TDP1): qHTS in cells in absence of CPT; further: nearly all actives have a fitted effect of over 55% in size
# Conditions: DT40 Tdp1-/- hTDP1 cells, no CPT, ATP luminescence, 48 h; series mostly up to 46.2 µM
# In short: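 Growth of hTDP1-complemented DT40 Tdp1-knockout cells is measured by ATP luminescence after at least 48 hr compound exposure at 37 °C, with DMSO substituting for the 20 nM CPT used in the parallel screen.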
# Potency means the concentration at half of the fitted maximal effect; tags describe the fitted curve by direction and shape.
row,Structure (SMILES),Potency
1,CNC(=S)Nc1cc(C)ccc1OC(F)F,inactive
2,O=C(CSc1ncnc2c1nnn2-c1ccc(F)cc1)NCc1ccco1,active: 14.6 µM
3,Cc1cc(C)nc(SCC(=O)N/N=C/C=C/c2ccccc2)n1,"inconclusive: 23.1 µM [inhibitor, partial curve, poor fit]"
4,COc1ccc(S(=O)(=O)N2CCOCC2)cc1NC(=O)c1ccc(OCC(C)C)c(OC)c1,"inconclusive: 23.1 µM [inhibitor, single point]"
5,Cc1ccccc1Nc1ccc(S(=O)(=O)N2CCOCC2)cc1[N+](=O)[O-],"inconclusive: 29.1 µM [inhibitor, single point]"
6,Cc1ccc2cc3cc(C(=O)NCCCN4CCc5ccccc5C4)oc3nc2c1,"inconclusive: 23.1 µM [inhibitor, single point]"
7,NNC(=O)CNC(c1ccccc1)c1cc(Br)ccc1NC(=O)CCN1CCOCC1 (stereo not drawn),active: 13 µM
8,CCOC(=O)c1c(NC(=O)c2c(Br)cnn2C)c(C#N)nn1-c1ccccc1,"inconclusive: 20.6 µM [inhibitor, single point]"
9,Cc1[nH]c(=O)c(C#N)c2c1CSC(C)(C)C2,inactive
10,Cc1ccc(SCC(=O)N(Cc2nc(-c3ccccc3)no2)C(C)C)cc1,"inconclusive: 29.1 µM [inhibitor, single point]"
11,Cc1ccc(C(=O)OCCOc2cccc(Cl)c2)cc1S(=O)(=O)N1CCOCC1,"inconclusive: 18.4 µM [inhibitor, single point]"
12,Cc1ccccc1/C=N/n1c(-c2ccccn2)n[nH]c1=S,inactive
13,CCCCN(Cc1ccccc1)C(=O)C1CCC(=O)N(CCc2ccccn2)C1 (stereo not drawn),inactive
14,COc1ccc(C=C2CCc3ccccc3C2=O)cc1,"inconclusive: 20.6 µM [inhibitor, single point]"
15,COc1ccc(CNC(=O)c2cc3c(=O)[nH]c4ccccc4c3n2C)c(OC)c1,"inconclusive: 29.1 µM [inhibitor, single point]"
16,Cc1ccc([C@H]2N[C@]3(CCCN(Cc4ccc(Br)cc4)C3=O)[C@H]3C(=O)N(Cc4ccccc4)C(=O)[C@@H]23)cc1,active: 29.1 µM
17,CC(=O)Nc1ccc(NC(=O)C2CCN(C(=O)c3cccs3)CC2)cc1,inactive
18,COc1ccc(OC)c(S(=O)(=O)N2CCC(C(=O)Nc3cc(C)ccc3C)CC2)c1,"inconclusive: 23.1 µM [inhibitor, single point]"
19,COc1cc(C(=O)NNC(=O)c2ccccc2OCc2c(C)noc2C)cc(OC)c1OC,"inconclusive: 23.1 µM [inhibitor, single point]"
20,O=C(CC(C(=O)O)P(=O)(c1ccccc1)c1ccccc1)c1ccccc1 (stereo not drawn),inactive
21,COc1ccc2cc(CCOC3CCCCO3)ncc2c1 (stereo not drawn),"inconclusive: 16.4 µM [inhibitor, partial curve]"
22,CC(NC(=O)CN1C(=O)COc2ccc(Cl)cc21)c1ccccc1 (stereo not drawn),inactive

row,Structure (SMILES),Potency
1,COc1ccc(CCNC(=O)CCCn2c(=O)c3ccccc3n(CC(=O)Nc3ccc(C)cc3Cl)c2=O)cc1OC,"inconclusive: 29.1 µM [inhibitor, single point]"
2,COc1ccc(CCNC(=O)NC23CC4CC(CC(C4)C2)C3)cc1,"inconclusive: 29.1 µM [inhibitor, single point]"
3,CC(=O)N1c2ccc(S(=O)(=O)NCCC(=O)NCCc3ccc(Cl)cc3)cc2CC1C (stereo not drawn),"inconclusive: 14.6 µM [inhibitor, single point]"
4,CC(=O)NC(C)(c1ccccc1)c1nc(-c2cccc(C#N)c2)cs1 (stereo not drawn),"inconclusive: 25.9 µM [inhibitor, single point]"
5,C=CCn1c(SCC(=O)Nc2sccc2C(N)=O)nc2sc(CC)cc2c1=O,active: 25.9 µM
6,Cc1ccccc1C(=O)NC(=S)Nc1cccc(NC(=O)C(C)C)c1,"inconclusive: 23.1 µM [inhibitor, single point]"
7,CCCCCCCCCC(=O)NNC(=O)c1c(O)c2ccccc2n(CCC)c1=O,"inconclusive: 18.4 µM [inhibitor, single point]"
8,COc1ccc(Cl)cc1NC(=O)NCc1noc2ccccc12,"inconclusive: 16.4 µM [inhibitor, single point]"
9,COc1ccc(Cc2noc(CN(C)CCN3CCc4ccccc4C3)n2)cc1OC,"inconclusive: 16.4 µM [inhibitor, single point]"
10,Cc1ccc(C(=O)c2ccc(N3CCN(C)CC3)c([N+](=O)[O-])c2)cc1,active: 23.1 µM
11,C/C(=N/NC(=O)c1ccc(Br)o1)c1ccc(C)o1,"inconclusive: 0.231 µM [inhibitor, partial curve, poor fit]"
12,CC(=O)Nc1ccc(NC(=S)NC(=O)C2CC2)cc1,inactive
13,CCOC(=O)N1CCN(S(=O)(=O)c2ccc(C(=O)Nc3nnc(CC)o3)cc2)CC1,inactive
14,CC(C)CC(=O)Nc1cc([N+](=O)[O-])ccc1Cl,inactive
15,CCOC(=O)CN1C(=O)C(=O)c2cccc(C)c21,"inconclusive: 25.9 µM [inhibitor, single point]"
16,COc1ccc(-c2csc3ncnc(N4CCN(S(=O)(=O)c5cccc(F)c5)CC4)c23)cc1,"inconclusive: 20.6 µM [inhibitor, single point]"
17,Cc1ccc(-c2c(C(=O)N(C)Cc3ccccc3)oc(=O)c3ccccc23)cc1,"inconclusive: 29.1 µM [inhibitor, single point] and inconclusive: 25.9 µM [inhibitor, single point]"
18,Cc1cccc(N(CC(=O)NCCSc2ccc(Cl)cc2)S(C)(=O)=O)c1C,"inconclusive: 29.1 µM [inhibitor, single point]"
19,CC(C)NS(=O)(=O)c1ccc(NC(=O)C(C)Oc2ccc(C(=O)c3ccccc3)cc2)cc1 (stereo not drawn),active: 18.4 µM
20,COc1ccc(C(=O)N2CCN(c3ccc(C)cc3)CC2)cc1OC,"inconclusive: 9.2 µM [inhibitor, partial curve]"
21,CSc1ccc(CNC(=O)Cn2nc(C)c3c(C)n(-c4ccc(C)cc4)nc3c2=O)cc1,"inconclusive: 1.16 µM [inhibitor, full curve, poor fit]"
